Assay results from the RNAGym collection of RNA variant scans (doi:10.7554/elife.90254).
The source gives no read counts; variants with many changes may rest on few reads.

B1: LINE1-full (parent)
chain: UACGUAGGUGGUUUUCCCCUGAUAGUGCUAAGGGGGCCUGGAAGUUUGGACUGGGCAGAGCUCAACACAGCGUGGCAAAGUGGCUGUGGCUAGACUGCCUCUCUGGAUUCCUCGUCACUCAGCAGGGCAUCUCUGAGAGAAAUGCC

Variants of: B1
Assay: self-cleavage, relative activity (ratio to wild type); higher = more cleavage; in vitro, sequencing; the parent is a self-cleaving ribozyme

Row | Variant | self-cleavage
1 | A6G A78G U143C | 0.69
2 | U5A U47A A50G | 0.46
3 | U5G G74A U130C A140G | 0.21
4 | U5A U62C C99U | 0.09
5 | A6G G40C U132G A138G | 1.6
6 | A6G U13C U109C | 0.97
7 | A6G A22G A64U A67G U87A U102C | 0
8 | G4A U13C U45C A129G | 1.25
9 | U5A A67G U87A A121U A124G | 0.05
10 | A6G A78G A94U C128U U130C | 0.41
11 | U5C U45C A64G | 0.48
12 | U5C U12A C38U | 1.15
13 | U5C A6G A129G | 0.82
14 | U5C U29C G114U A136G | 2.27
15 | U5C A69G A78G U112C | 0
16 | U5C C63U C84U U115C | 0.27
17 | U5C U14C U15A C71U U100C A142G | 1.52
18 | U5C A67G G127U A142G | 0.24
19 | U5C U26A A43G U102C | 0
20 | U5C U62C A107G A141G | 0
21 | A6G A67C U85A | 0.29

Row | Variant | self-cleavage
22 | A6G G70U U108C A121G | 0.1
23 | G4A U46C A140G | 0.82
24 | U5C U15C C37A U85A U112C | 0.09
25 | A6G A136U A140G | 0.97
26 | A6G U12C A65G A77G G127A | 0.24
27 | U5A A129U A136U | 0
28 | U5A U46A U119C | 1.11
29 | U5C G32C U132C | 0.84
30 | U5C A6U U81A | 1.51
31 | U5C U13C U29G | 2.11
32 | U5A U12C U15C A77G | 0.43
33 | U5C A69C G74U | 0.04
34 | A6G A77G C90A A124G U132C | 0.12
35 | G4A U62C A65G U132C A138G | 0.28
36 | U5C A22G U85C A140C | 0
37 | U5C A94G U100C | 0.84
38 | U5C U62C U91C G93A A140G | 0
39 | U5A U9C U109A C120A | 0.56
40 | G4U G58U C101A A141G | 0.14
41 | U5C U13G G36A U143C | 0.79
42 | A6G G41A U130C | 1.28

Row | Variant | self-cleavage
43 | U5C A78G A142C | 1.48
44 | U5C A24U U62C U96C A140G G144A | 0
45 | U5C A50G U81A U112C A142U U143C | 1.9
46 | A6G A65G U109C A117G | 0
47 | G4A U52A A69G A94G | 0
48 | U5C U20A U47A U52C | 1.25
49 | U5C G40A A57G U81A | 0.36
50 | G4C U14C U100C A138G | 1.15
51 | A6C U20A U47A U143A | 1.81
52 | U5C U9C U20C U109C | 1.53
53 | G4A U9C U14C A140C | 0.96
54 | A6G U9A U13C U39A U62C | 0.32
55 | G4A U112C A124U | 1.22
56 | U5C C17U U112C | 0.84
57 | U5C A57G G88A | 0.11
58 | U5C C61A G74A A124G U134C | 0.04
59 | U5A A6G A65G | 0.23
60 | U5A G35C U102C U115C | 2.09
61 | U5A A65U A136G | 0.42
62 | U5C U9C A124G U134C A138U | 0
63 | U5A U14C C56U U100C U104C | 0

Row | Variant | self-cleavage
64 | G4A U14A C37G A77U U119C A121U G144U | 0.57
65 | G4C U15A G88U | 0.07
66 | U5A U12C U39A A77G | 1.86
67 | U5A A124G A136U | 0.92
68 | U5C G7A U39C A141G | 1.02
69 | U5C A42G C71U C90G U100C | 0
70 | U5A U52A C101A | 0.93
71 | U5C A69U U119C A124G | 0
72 | U5C G34A A50U U100C U119C | 0.97
73 | U5C U14C U39C | 0.71
74 | U5A U81A U115C | 1.88
75 | U5C U85A U96A | 0.16
76 | G4A U26C A64C G114A | 0.26
77 | A6G A57C U85C | 0
78 | A6G A78G G125U | 1.08
79 | A6G A65G C84G U100C | 0.66
80 | U5C A57G U73C A129U A141G | 0
81 | U5A G34U G36C U47C | 0.81
82 | G4U U14A C128U | 0.75
83 | U5A U62C U119C C120U | 0.03
84 | U5C C68A U102G U108C U119C | 0
